In all, about 33,000 sequences were measured (“E-score (-0.5 to 0.5)”: median about -0.012, highest 2% from about 0.27 on). This is one part of the list.
Target: T1, Vhr1 (UniProt P40522)
T1 sequence: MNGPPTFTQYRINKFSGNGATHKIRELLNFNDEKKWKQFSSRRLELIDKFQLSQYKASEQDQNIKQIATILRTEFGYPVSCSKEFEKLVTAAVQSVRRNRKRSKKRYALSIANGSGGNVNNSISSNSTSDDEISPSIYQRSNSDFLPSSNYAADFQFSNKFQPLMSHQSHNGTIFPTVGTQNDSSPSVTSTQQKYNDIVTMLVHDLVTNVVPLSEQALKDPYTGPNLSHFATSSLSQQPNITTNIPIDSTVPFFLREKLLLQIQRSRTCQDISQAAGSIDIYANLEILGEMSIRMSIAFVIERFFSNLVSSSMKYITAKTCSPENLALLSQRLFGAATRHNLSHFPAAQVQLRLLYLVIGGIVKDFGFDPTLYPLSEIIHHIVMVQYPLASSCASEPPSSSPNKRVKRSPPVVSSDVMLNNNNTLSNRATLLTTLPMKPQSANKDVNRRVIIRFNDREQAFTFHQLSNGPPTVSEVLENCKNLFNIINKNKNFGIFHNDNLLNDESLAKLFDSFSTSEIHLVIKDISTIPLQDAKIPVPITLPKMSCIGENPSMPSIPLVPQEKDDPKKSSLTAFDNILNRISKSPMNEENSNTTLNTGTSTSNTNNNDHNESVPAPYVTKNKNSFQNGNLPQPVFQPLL
Assay: PBM E-score (8-mer binding enrichment) (E-score (-0.5 to 0.5)); higher = stronger / more preferred TF binding; most listed sequences are background and not binding sites
Details: protein concentration: 200 nM; construct: GST-full length
Procedure, shortened: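 Yeast transcription factors carrying a GST tag, as full-length proteins or DNA-binding domains, were produced by PURExpress in vitro transcription/translation. About 100-200 nM protein was applied to universal all-10-mer Agilent arrays, double-stranded by primer extension on fresh or once-stripped slides. Bound protein was detected with fluorescent anti-GST, and scans were normalised with masliner. The Universal PBM Analysis Suite gave each ungapped eight-base word, pooled with its reverse complement, an E-score, a modified Wilcoxon-Mann-Whitney statistic.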

Sequence	PBM E-score
CTAAGCTC	-0.15
ACGGCCCT	-0.287
ATGGTGCG	-0.0561
CACTTAAG	-0.0463
AATGGCAG	-0.0191
AGGTGACA	0.0488
ACATAACA	0.0352
ATATTTGA	0.147
ATGCCTTA	-0.145
AGTCACCA	0.426
AATCATGT	0.389
GGTCCTCA	-0.209
ACCGTGCA	-0.115
AAAAACTC	-0.106
CCAGAATA	-0.035
AACATCTA	-0.152
CCAACTAA	0.0222
CACGGTCC	-0.118
CCACTTCA	-0.0055
ATTACTGC	0.206
GTAGAGAA	-0.118
AGCTCCCA	-0.0653

Sequence	PBM E-score
GCGATCGA	0.0608
ATCAAACG	-0.24
ACTTCGGC	0.0903
ATTGAAAA	-0.126
ATCCCGAT	0.121
GCTAATTA	0.0163
CAGATTCA	-0.232
ACCCTTCC	0.0544
GTGGTAAA	-0.123
GATTCTGC	0.113
CGCGGCCC	0.0527
GAGCTGAC	0.235
CTTTCATC	-0.205
TCATACGA	0.171
CGTTAGGA	0.0291
CGGTTTAA	-0.169
CACTATTA	0.13
CATCAGAC	0.246
ACGCCCAT	0.103
ACCCATGG	0.211
CGATATTA	0.171
CCATGAGG	-0.21

Sequence	PBM E-score
GCAGAAAA	-0.0271
CGGAAGAC	0.184
CTTTAGCA	-0.158
GCCTTAAA	-0.174
ACATGTGG	0.278
AAGTTGGA	-0.0396
GTTAGTGA	0.0216
AGAATTGA	-0.244
ACGTGTGC	-0.0314
AAAGTCGG	-0.203
AATGATCC	-0.0402
AGAACAAG	0.0641
AAGTAGCT	-0.251
GTTGTATA	0.0288
AAGAGGCA	0.0678
CCAAGCAA	0.136
CACGTGCC	-0.0472
AGTTAGAG	0.0903
CTGTTTCC	-0.185
AGCGGAAC	-0.0399
ATAGCGGA	-0.0723
GGACAATA	-0.00135

Sequence	PBM E-score
CTAGCTTA	-0.0946
AGAAAAAT	-0.139
ACTCGAGG	-0.0462
CCTTGCCG	-0.00503
GACAGCGC	0.00758
TTATCCAA	-0.0788
GACGGAAC	-0.0122
AGCAGTGG	-0.0474
AGGTCTGA	0.0434
CTGCGACC	-0.00159
AACGCCGA	0.00429
AGGAAATC	0.0336
ACGTTGCG	0.00783
CCACAAAA	-0.0265
CCCAACAC	-0.0212
ACTATAAT	0.227
CACTATGA	0.173
AGACTCTG	0.178
AAAAATGT	-0.194
GCCATAGC	-0.0742

— the supplement of paper PMC3334620
